Results taken from the supplement of paper PMC12889115.
The list shows a part of the results. Rule as the data show it: active = 25% or less and inactive = the rest. Repeats are few or missing, and single values can be far off.

Assays:
[1] = test system: Salmonella enterica serovar Typhimurium SL1344; assay: bacterial growth OD600 after 18 h in MHB with 0.5 µg/mL polymyxin B; higher = more bacterial growth (less inhibition); conditions: 25 µM; polymyxin B 0.5 µg/mL; system: broth
Description: (§1)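 Secondary screen of the 553 primary hits at 25 µM. (i) S. Typhimurium SL1344 grown in Mueller-Hinton broth with 0.5 µg/mL polymyxin B, OD600 read after 18 h. (ii) SAFIRE assay: RAW 264.7 macrophages infected with S. Typhimurium sifB::gfp (MOI 30); compound added 2 h post-infection; cells fixed at 18 h; GFP-positive pixel fraction per macrophage imaged by confocal microscopy and expressed as % of DMSO control.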

[2] = test system: Salmonella enterica serovar Typhimurium SL1344; assay: intramacrophage bacterial GFP load (SAFIRE), percent of DMSO control (% of DMSO); higher = more intracellular bacteria (less inhibition); conditions: 25 µM; system: infected RAW 264.7 macrophages
Description: as §1
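For bacterial growth OD600 after 18 h in MHB with 0.5 µg/mL polymyxin B in this document: polymyxin B level opens the outer membrane while sparing the inner membrane, with novobiocin wells as reference growth inhibitor.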
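For intramacrophage bacterial GFP load (SAFIRE), percent of DMSO control in this document: compounds tested were the hits of an earlier 50 µM broth growth screen of a drug-like diversity library run with polymyxin B.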

SMILES	bacterial growth OD600 [1]	intramacrophage bacterial GFP load [2]
CC[C@H](C)[C@H](NC(=O)CCC1(Cc2ccc(OC)cc2F)CCC(=O)N1)C(=O)OC (stereo partly specified)	0.483	inactive: 117
Cc1cccc(-c2cnc(C)nc2C2CCCN(C(=O)C34CC5CC(CC(C5)C3)C4)C2)c1 (stereo unspecified)	-0.006	inactive: 57.8
COC(c1ccc2c(c1)CN(C(=O)C1Cc3ccccc3O1)CCO2)C1CCCCC1 (stereo unspecified)	0.006	inactive: 42.9
COc1ccc2c(c1)SC(c1ccc(OC)c(C)c1)CCN2Cc1cccc2nccnc12 (stereo unspecified)	0.381	inactive: 128
CCN(Cc1ccccc1)Cc1cnc(S(=O)(=O)C(C)C)n1CCc1ccccc1	-0.021	inactive: 77.7
Cc1c(C(=O)NCc2ccc(N3CCOCC3)cc2)oc2c(F)cccc12	0.166	inactive: 79.4
CN1C(=O)CC(CC(=O)N(CCO)Cc2ccccc2)(c2ccc(-c3ccccc3)cc2)C1=O (stereo unspecified)	-0.001	inactive: 91.2
CC(c1ccon1)N(C)C(=O)CC1(c2ccc(-c3ccccc3)cc2)CC(=O)N(C)C1=O (stereo unspecified)	0.205	inactive: 86.8
COc1ccc(-c2noc(CN3CCC(O)(c4cccc(C(F)(F)F)c4)CC3)n2)cc1	0.002	inactive: 106
CCOC(=O)C1(Cc2ccc(F)cc2)CCCN(C(=O)c2cc3ccccc3cn2)C1 (stereo unspecified)	0.002	inactive: 57.2
COc1ccc(OC)c(-c2cc(Cl)c3c(c2)CC(CNC(=O)Cc2cn4ccsc4n2)O3)c1 (stereo unspecified)	0.002	inactive: 136
CSc1ccccc1C(=O)N1CCC(C(Cc2ccccc2F)N(C)C(=O)c2cccs2)CC1 (stereo unspecified)	0.003	inactive: 39.4
Cc1ccc2c(c1)CN(Cc1cccnc1)CC(c1ccsc1)O2 (stereo unspecified)	0.013	inactive: 80.7
